# Test results as given in PubChem BioAssay (EPA / NIEHS).
# For part of these data: This list holds what a sample rich in hits left over. Results filed as inconclusive are left out. More than one record can exist for a structure, and the calls need not agree. Only a part is listed here, and it is no random draw. Active and inactive are the calls of the source. How the source made its calls, unless noted: active means hit-call score of the fitted dose curve at least 0.9, where 1 is the maximum; inconclusive means response in the unintended direction; inactive means score below 0.9.
# How the values were obtained:
# [1] = read-out: Vascular cell adhesion molecule 1 (VCAM1), VCAM1 (gene 7412); assay: BSK_4H_VCAM1: BioMAP Diversity Plus: 4H Assay for Vascular cell adhesion molecule 1 (VCAM1) Biomarker Activity (AID 2283033; active means hit-call score of the fitted dose curve at least 0.9, where 1 is the maximum; inactive means score below 0.9;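 further: cell-surface VCAM-1 protein measured by ELISA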); details: actives raise or lower the signal; primary human endothelial cells (HUVEC)
# How it was run: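 HUVEC, 24 h post-dose; VCAM-1 by ELISA. Bidirectional curve fit vs DMSO baseline. Parallel SRB total-protein stain (0.1% SRB after 10% TCA fixation, 560 nm) for cytotoxicity.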
# [2] = CEETOX_H295R_11DCORT: CeeTox H295R High-throughput Steroidogenesis Assay for 11-Deoxycortisol (11DCORT) (AID 2283432; active means hit-call score of the fitted dose curve at least 0.9, where 1 is the maximum; inactive means score below 0.9); details: actives raise or lower the signal
# How it was run: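 Steroidogenesis in human H295R cells: 48 h chemical exposure after forskolin priming, 11-deoxycortisol measured by LC-MS/MS.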
# [3] = Tanguay_ZF_120hpf_SNOU_legacy: (Legacy) Oregon State University Tanguay Lab 120 Hour Post-fertilization zebrafish Assay for Snout Malformation (AID 2283637)
# How it was run: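 Dechorionated zebrafish, individually housed from 6 hpf in covered, sealed wells at 28C with 0.64% DMSO vehicle, were examined at 120 hpf for snout malformation. Responses were binary and analysed positive-direction relative to DMSO.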
# [4] = ACEA_AR_antagonist_AUC_viability: ACEA Biosciences xCELLigence Real-Time Cell Analysis on Androgen Receptor Antagonism for Viability (AID 2283776);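 further: 22Rv1 human prostate cancer cells growing on impedance electrode plates; area under impedance growth curve at 80 h after dosing as viability; hits lower the growth signal relative to DMSO meaning cytotoxicity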
# How it was run: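 Viability endpoint from label-free cell-index monitoring: 22Rv1 cultures treated with an eight-point 1:4 dilution series starting at 100 uM final, AUC at 80 h fitted against DMSO.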
# [5] = CCTE_Shafer_MEA_acute_per_burst_spike_number_mean: CCTE's Neural Acute Assay for Average Number of Spikes Per Burst, Shafer Lab (AID 2284015; active means hit-call score of the fitted dose curve at least 0.9, where 1 is the maximum; inactive means score below 0.9;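 further: hits are decreases in mean spikes per burst versus baseline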)
# How it was run: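 We recorded spontaneous network firing of rat cortical neurons for 40 min before and 40 min during exposure to compound at 0.03-40 uM, at 37 C. Spikes were detected adaptively at 8x rms noise, and the change in average spikes per burst was fitted against DMSO.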
# [6] = CCTE_Mundy_HCI_Cortical_Synap_Neur_Matur_NeuriteSpotCountPerNeuriteLength: CCTE's Synaptogenesis and Neurite Maturation Assay in rat cortical cells for Neurite Spot Count per Neurite Length, Mundy Lab (AID 2284210; active means hit-call score of the fitted dose curve at least 0.9, where 1 is the maximum; inactive means score below 0.9)
# How it was run: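 Neurite-associated synapse density (synaptophysin puncta per unit neurite length) is measured by fluorescence high-content imaging in rat cortical cultures treated from DIV 7 and fixed at DIV 12, with DMSO as negative control.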
# [7] = BSK_BE3C_SRB: Viability Assessment in the BioMAP Diversity Plus: BE3C Assay (AID 2283028; active means hit-call score of the fitted dose curve at least 0.9, where 1 is the maximum; inactive means score below 0.9;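 further: measured 24 h after chemical dosing; fitted both ways so AC50 may mark signal gain or loss versus DMSO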); details: primary human bronchial epithelial cells
# How it was run: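 Cytotoxicity read-out: SRB (0.1%) staining of TCA-fixed (10%) human lung bronchial epithelial cells, absorbance 560 nm, 24 h post-dosing. Curves fitted both directions relative to DMSO.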
# [8] = read-out: Heat shock 70 kDa protein 1 (HSPA1A), gene 3303; assay: LTEA_HepaRG_HSPA1A: Life Technologies and Expression Analysis (LTEA) Assay for Heat shock 70 kDa protein 1 (HSPA1A) using HepaRG (AID 2283502; active means hit-call score of the fitted dose curve at least 0.9, where 1 is the maximum; inactive means score below 0.9); details: actives raise or lower the signal; mRNA level, 48 h
# How it was run: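 HepaRG, 48 h exposure, 8-pt half-log CRC from 100 uM in 0.5% DMSO, duplicates. Readout: TaqMan qRT-PCR of HSPA1A mRNA, housekeeping-normalized (ACTB/GAPDH/POLR2A). Bidirectional fit vs 0.5% DMSO baseline.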
# [9] = read-out: Matrix Metallopeptidase 1 (MMP1), MMP1 (gene 4312); assay: BSK_BE3C_MMP1: BioMAP Diversity Plus: BE3C Assay for Matrix Metallopeptidase 1 (MMP1) Biomarker Activity (AID 2283024; active means hit-call score of the fitted dose curve at least 0.9, where 1 is the maximum; inactive means score below 0.9); details: actives raise or lower the signal; primary human bronchial epithelial cells
# How it was run: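 ELISA read-out of MMP1 in human lung bronchial epithelial primary cultures, 24 h post-dose; bidirectional curve fit vs DMSO baseline, gain or loss of signal scored.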
# [10] = read-out: Interleukin-8 (IL8), CXCL8 (gene 3576); assay: BSK_CASM3C_IL8: BioMAP Diversity Plus: CASM3C Assay for Interleukin-8 (IL8) Biomarker Activity (AID 2283042; active means hit-call score of the fitted dose curve at least 0.9, where 1 is the maximum; inactive means score below 0.9;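 further: IL-8 protein level quantified by ELISA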); details: actives raise or lower the signal; primary human coronary artery smooth muscle cells
# [11] = BSK_CASM3C_Proliferation: Cell Proliferation Assessment in the BioMAP Diversity Plus: CASM3C Assay (AID 2283047; active means hit-call score of the fitted dose curve at least 0.9, where 1 is the maximum; inactive means score below 0.9;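 further: sulforhodamine B total protein stain as relative cell number at 560 nm; sub-confluent cells exposed 48 h before staining; fitted both ways against DMSO so gain or loss of cell number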); details: primary human coronary artery smooth muscle cells
# [12] = biological target: human Epidermal Growth Factor Receptor (EGFR), EGFR (gene 1956) (UniProt P00533); assay: NVS_ENZ_hEGFR: NovaScreen (NVS) Enzymatic Assay for human Epidermal Growth Factor Receptor (EGFR) (AID 2283151)
# Chain of UniProt P00533 (P00533 whole entry, looked up): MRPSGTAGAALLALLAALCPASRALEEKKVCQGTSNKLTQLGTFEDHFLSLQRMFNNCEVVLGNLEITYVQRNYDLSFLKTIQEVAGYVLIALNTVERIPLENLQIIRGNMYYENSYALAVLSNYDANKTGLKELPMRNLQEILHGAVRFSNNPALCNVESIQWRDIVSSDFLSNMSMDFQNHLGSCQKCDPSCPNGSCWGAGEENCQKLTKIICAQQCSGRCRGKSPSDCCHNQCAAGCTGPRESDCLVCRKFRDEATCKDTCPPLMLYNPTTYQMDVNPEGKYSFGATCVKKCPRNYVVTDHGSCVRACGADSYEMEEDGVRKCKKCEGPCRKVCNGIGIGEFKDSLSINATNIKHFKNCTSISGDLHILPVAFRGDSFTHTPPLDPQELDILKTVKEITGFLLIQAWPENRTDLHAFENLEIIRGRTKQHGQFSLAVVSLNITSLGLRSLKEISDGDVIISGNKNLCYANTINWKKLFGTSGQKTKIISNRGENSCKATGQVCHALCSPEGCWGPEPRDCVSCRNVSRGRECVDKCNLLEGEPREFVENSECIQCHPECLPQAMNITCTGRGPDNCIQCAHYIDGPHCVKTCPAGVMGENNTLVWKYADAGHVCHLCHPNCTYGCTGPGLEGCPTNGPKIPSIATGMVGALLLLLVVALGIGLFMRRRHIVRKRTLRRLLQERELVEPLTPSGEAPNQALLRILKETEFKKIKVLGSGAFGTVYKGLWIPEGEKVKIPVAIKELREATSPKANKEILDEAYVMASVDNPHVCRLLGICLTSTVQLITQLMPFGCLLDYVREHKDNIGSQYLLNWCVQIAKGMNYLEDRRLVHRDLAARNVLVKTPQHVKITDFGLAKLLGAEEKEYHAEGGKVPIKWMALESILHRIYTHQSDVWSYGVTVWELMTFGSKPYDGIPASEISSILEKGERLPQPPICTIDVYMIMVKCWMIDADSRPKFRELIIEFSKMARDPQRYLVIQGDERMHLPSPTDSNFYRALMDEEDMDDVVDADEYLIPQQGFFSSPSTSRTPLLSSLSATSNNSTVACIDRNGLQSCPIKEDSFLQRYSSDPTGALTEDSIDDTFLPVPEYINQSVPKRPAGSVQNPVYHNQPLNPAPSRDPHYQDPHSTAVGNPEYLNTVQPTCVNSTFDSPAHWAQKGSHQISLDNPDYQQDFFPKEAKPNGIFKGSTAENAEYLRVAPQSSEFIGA
# How it was run: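 Cell-free kinase assay, fluorescence plus electrophoretic mobility shift separating substrate and product, read 1 hour after dosing; loss of signal vs DMSO. Duplicate screen at 25 uM, then concentration-response to 50 uM.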
# [13] = biological target: human Matrix Metalloproteinase-2 (MMP2), MMP2 (gene 4313) (UniProt P08253); assay: NVS_ENZ_hMMP2: NovaScreen (NVS) Enzymatic Assay for human Matrix Metalloproteinase-2 (MMP2) (AID 2283184)
# Chain of UniProt P08253 (P08253 whole entry, looked up): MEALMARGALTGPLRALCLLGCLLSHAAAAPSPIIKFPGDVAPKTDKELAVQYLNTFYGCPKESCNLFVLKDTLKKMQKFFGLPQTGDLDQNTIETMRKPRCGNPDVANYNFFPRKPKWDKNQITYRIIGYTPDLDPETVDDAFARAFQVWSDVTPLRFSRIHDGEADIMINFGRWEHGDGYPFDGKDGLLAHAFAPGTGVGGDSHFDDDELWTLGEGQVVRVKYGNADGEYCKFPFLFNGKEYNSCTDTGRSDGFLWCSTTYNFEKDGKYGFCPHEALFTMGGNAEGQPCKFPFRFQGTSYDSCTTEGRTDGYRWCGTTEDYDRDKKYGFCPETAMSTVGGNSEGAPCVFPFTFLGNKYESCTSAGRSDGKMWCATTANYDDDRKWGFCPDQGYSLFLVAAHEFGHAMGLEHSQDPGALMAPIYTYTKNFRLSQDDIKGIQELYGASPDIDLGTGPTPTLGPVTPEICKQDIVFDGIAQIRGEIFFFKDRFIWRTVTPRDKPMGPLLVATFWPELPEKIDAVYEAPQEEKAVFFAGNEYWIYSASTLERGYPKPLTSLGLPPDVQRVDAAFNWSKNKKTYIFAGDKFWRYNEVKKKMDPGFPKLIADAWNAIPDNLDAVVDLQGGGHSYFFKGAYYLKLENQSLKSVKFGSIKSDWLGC
# How it was run: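 Compounds first screened in duplicate at a single 25 uM, with actives followed up in concentration series. Recombinant human MMP2 cleaves a fluorogenic substrate; fluorescence taken at 1 h, inhibition fitted relative to DMSO.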
# [14] = biological target: human NIMA (Never In Mitosis Gene A)-Related Kinase 2 (NEK2), NEK2 (gene 4751) (UniProt P51955); assay: NVS_ENZ_hNEK2: NovaScreen (NVS) Enzymatic Assay for human NIMA (Never In Mitosis Gene A)-Related Kinase 2 (NEK2) (AID 2283188)
# Chain of UniProt P51955 (P51955 whole entry, looked up): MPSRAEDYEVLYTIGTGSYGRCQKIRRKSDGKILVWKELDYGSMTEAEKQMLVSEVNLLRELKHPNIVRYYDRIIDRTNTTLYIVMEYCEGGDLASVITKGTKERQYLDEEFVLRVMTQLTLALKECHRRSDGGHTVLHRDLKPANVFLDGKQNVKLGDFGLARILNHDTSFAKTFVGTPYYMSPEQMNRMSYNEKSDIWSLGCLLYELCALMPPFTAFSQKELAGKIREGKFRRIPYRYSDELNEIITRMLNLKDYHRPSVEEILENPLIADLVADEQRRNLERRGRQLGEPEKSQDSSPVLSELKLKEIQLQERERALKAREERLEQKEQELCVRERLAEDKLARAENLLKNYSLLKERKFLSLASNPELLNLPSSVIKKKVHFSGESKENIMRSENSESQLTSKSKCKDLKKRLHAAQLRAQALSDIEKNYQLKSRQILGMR
# [15] = biological target: Tyrosine-protein phosphatase non-receptor type 11 (Homo sapiens) (UniProt Q06124); assay: NVS_ENZ_hPTPN11: NovaScreen (NVS) Enzymatic Assay for human Protein Tyrosine Phosphatase Non-receptor Type 11 (PTPN11) (AID 2283202)
# Chain of UniProt Q06124 (Q06124 whole entry, looked up): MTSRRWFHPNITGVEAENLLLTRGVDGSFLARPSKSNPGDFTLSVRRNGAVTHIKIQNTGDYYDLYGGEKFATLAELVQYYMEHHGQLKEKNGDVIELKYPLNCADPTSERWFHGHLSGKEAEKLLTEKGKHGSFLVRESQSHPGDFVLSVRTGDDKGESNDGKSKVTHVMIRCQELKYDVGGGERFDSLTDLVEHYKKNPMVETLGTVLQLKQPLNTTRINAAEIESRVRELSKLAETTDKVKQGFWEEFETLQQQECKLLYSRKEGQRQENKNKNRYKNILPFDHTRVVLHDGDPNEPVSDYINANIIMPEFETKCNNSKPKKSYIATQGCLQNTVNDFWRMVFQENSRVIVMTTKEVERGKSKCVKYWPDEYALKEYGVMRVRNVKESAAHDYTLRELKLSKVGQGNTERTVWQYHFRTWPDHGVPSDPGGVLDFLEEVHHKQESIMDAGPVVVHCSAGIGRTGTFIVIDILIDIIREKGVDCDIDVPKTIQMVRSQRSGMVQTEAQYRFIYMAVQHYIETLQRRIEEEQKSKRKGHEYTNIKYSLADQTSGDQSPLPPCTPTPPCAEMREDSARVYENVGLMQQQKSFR
# How it was run: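 Compounds first tested in duplicate at 25 uM; those reaching ~30% inhibition rerun in singleton concentration-response, top 50 uM. Phosphatase activity measured after 0.5 h by fluorescence with mobility-shift separation, relative to DMSO.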
# [16] = biological target: human Protein Tyrosine Phosphatase Receptor Type M (PTPRM), PTPRM (gene 5797) (UniProt P28827); assay: NVS_ENZ_hPTPRM: NovaScreen (NVS) Enzymatic Assay for human Protein Tyrosine Phosphatase Receptor Type M (PTPRM) (AID 2283215)
# [17] = biological target: human Vascular Endothelial Growth Factor Receptor 1 (VEGFR1), FLT1 (gene 2321) (UniProt P17948); assay: NVS_ENZ_hVEGFR1: NovaScreen (NVS) Enzymatic Assay for human Vascular Endothelial Growth Factor Receptor 1 (VEGFR1) (AID 2283226)
# Chain of UniProt P17948 (P17948 whole entry, looked up): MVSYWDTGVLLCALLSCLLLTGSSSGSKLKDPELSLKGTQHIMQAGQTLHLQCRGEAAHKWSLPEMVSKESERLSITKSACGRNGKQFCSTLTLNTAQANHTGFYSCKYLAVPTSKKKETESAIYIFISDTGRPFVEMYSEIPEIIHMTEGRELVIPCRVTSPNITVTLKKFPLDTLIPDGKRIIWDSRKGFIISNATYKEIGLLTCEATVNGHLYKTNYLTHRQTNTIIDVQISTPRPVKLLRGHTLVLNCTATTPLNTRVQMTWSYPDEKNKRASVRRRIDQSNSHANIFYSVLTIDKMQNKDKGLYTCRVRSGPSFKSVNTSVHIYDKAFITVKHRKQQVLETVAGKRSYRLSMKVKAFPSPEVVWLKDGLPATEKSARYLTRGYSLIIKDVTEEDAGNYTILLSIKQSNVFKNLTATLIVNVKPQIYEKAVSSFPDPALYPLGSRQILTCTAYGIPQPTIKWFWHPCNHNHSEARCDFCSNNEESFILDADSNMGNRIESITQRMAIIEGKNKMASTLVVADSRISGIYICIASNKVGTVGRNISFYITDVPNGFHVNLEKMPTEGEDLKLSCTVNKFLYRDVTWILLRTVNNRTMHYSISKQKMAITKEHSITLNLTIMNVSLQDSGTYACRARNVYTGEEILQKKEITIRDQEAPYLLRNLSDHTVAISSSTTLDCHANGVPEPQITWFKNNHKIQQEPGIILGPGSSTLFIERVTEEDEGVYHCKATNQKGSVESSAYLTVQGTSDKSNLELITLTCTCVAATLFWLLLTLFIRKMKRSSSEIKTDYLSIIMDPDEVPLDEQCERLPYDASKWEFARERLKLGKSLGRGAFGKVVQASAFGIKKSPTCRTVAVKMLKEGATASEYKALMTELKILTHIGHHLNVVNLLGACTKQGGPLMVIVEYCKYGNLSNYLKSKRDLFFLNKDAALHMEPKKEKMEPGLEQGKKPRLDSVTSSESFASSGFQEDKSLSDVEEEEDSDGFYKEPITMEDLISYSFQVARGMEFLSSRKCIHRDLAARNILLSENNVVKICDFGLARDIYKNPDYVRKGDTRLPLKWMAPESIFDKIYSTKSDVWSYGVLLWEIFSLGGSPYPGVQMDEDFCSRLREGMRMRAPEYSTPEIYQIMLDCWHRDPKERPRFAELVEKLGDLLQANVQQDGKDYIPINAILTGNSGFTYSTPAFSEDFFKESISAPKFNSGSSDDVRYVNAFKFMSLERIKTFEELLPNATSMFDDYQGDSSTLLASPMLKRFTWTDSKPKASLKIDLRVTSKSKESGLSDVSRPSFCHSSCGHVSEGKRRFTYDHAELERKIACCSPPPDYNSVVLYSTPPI
# [18] = system: guinea pig Leukotriene B4 Receptor (LTB4), gene 100379538; assay: NVS_GPCR_gLTB4: NovaScreen (NVS) G Protein-Coupled Receptor Assay for guinea pig Leukotriene B4 Receptor (LTB4) (AID 2283247)
# How it was run: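 Membranes from guinea pig spleen incubated 2 h with radioligand and compound; bound counts measured by filtration and scintillation. Screened first at 25 uM in duplicate, then actives titrated to a 50 uM top concentration relative to DMSO.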
# [19] = read-out: Pro-epidermal growth factor (Homo sapiens) (UniProt P01133); assay: LTEA_HepaRG_EGF: Life Technologies and Expression Analysis (LTEA) Assay for Epidermal growth factor (EGF) using HepaRG (AID 2283489; active means hit-call score of the fitted dose curve at least 0.9, where 1 is the maximum; inactive means score below 0.9); details: actives raise or lower the signal; mRNA level, 48 h
# How it was run: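 EGF transcript measured by Fluidigm TaqMan qRT-PCR with three housekeeping genes for normalization, 48 h after dosing HepaRG cultures in duplicate (top 100 uM, half-log steps, 0.5% DMSO vehicle). Gain or loss relative to DMSO fitted.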
# MYC, MYC (gene 4609) = assay: LTEA_HepaRG_MYC: Life Technologies and Expression Analysis (LTEA) Assay for MYC using HepaRG (AID 2283518; active means hit-call score of the fitted dose curve at least 0.9, where 1 is the maximum; inactive means score below 0.9); details: actives raise or lower the signal; mRNA level, 48 h
# How it was run: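 MYC transcript changes, up or down relative to 0.5% DMSO, from TaqMan qRT-PCR normalized to three housekeeping genes. Human HepaRG cultures received chemicals for 48 h at eight half-log concentrations up to 100 uM, in duplicate.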
# [20] = biological target: Luciferin 4-monooxygenase (Photinus pyralis) (UniProt P08659); assay: CCTE_Simmons_QuantiLum_inhib_2: CCTE's Firefly Luciferase Inhibition Assay, Simmons Lab (AID 2283767)
# Chain of UniProt P08659 (P08659 whole entry, looked up): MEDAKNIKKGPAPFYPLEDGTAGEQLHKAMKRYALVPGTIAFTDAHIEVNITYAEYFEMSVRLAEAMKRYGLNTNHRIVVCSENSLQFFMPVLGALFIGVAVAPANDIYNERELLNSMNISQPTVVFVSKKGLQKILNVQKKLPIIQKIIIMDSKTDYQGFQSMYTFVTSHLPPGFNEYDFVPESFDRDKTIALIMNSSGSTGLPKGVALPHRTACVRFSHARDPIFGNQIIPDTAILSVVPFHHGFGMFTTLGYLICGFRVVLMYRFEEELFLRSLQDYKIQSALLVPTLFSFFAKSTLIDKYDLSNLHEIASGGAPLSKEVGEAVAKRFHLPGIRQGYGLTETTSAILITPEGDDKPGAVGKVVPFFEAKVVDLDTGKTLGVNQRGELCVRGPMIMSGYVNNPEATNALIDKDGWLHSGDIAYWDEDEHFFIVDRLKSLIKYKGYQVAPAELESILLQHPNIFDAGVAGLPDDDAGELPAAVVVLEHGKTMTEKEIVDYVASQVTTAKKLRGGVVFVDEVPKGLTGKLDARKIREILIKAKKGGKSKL
# How it was run: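 Cell-free QuantiLum luciferase, 5 ng/well; compounds 5 nM–87.5 uM final, 8 conc, 0.5% DMSO; 30 min, 37C, dark. Detection reagent (150 uM D-luciferin, 147 uM dATP, CoA, DTT, pH 7.8 final) injected per well, kinetic luminescence. Triplicate biological replicates.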
# [21] = ACEA_AR_agonist_AUC_viability: ACEA Biosciences xCELLigence Real-Time Cell Analysis on Androgen Receptor Agonism for Viability (AID 2283775)
# How it was run: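 Viability endpoint from xCELLigence impedance in 22Rv1 prostate cells at 80 h. Eight-point series, 100 uM maximum final.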
# [22] = CCTE_Simmons_MITO_viability: CellTiter-Glo Viability Assessment for CCTE's HepG2 Seahorse XF Respirometric Screening Assay [post-hoc], Simmons Lab (AID 2284007)
# How it was run: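 Luciferase-coupled ATP luminescence, single endpoint. HepG2, post-respirometry. Compound 125 nM–100 uM final, 7 conc., 90 min. n=3 biological, technical singles. DMSO vehicle/baseline; dichlone 10 nM–100 uM, 8 conc., as positive control.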
compound,measurement,setting,value
COP(=S)(OC)Oc1nc(Cl)c(Cl)cc1Cl,outcome,[1],inactive
same,outcome,[2],inactive
same,AC50,[3],active: 51.2 µM
same,AC50,[4],active: 73.8 µM
same,outcome,[5],inactive
same,outcome,[6],inactive
O=C(O)C(F)(F)C(F)(F)C(F)(F)C(F)(F)C(F)(F)C(F)(F)C(F)(F)C(F)(F)F,AC50,[7],active: 47 µM
same,AC50,[8],active: 73.4 µM
CN(C)[C@@H]1C(=O)C(C(N)=O)=C(O)[C@@]2(O)C(=O)C3=C(O)c4c(O)cccc4[C@@](C)(O)[C@H]3[C@H](O)[C@@H]12,outcome,[9],inactive
same,outcome,[10],inactive
same,outcome,[11],inactive
same,AC50,[12],active: 8.13 µM
same,outcome,[13],inactive
same,AC50,[14],active: 16.7 µM
same,AC50,[15],active: 4.28 µM
same,AC50,[16],active: 17 µM
same,AC50,[17],active: 17.5 µM
same,AC50,[18],active: 6.63 µM
same,outcome,[19],inactive
same,AC50,"MYC, MYC (gene 4609)",active: 23.1 µM
same,outcome,[20],inactive
same,outcome,[21],inactive
same,outcome,[4],inactive
same,outcome,[22],inactive
